From the supplement of paper PMC4466236
Whole data set: some 33,000 sequences, median “E-score (dimensionless, -0.5 to 0.5)” near -0.058, cut for the highest 2% near 0.35. The list shows a part of the results.

System: MvaT
Assay: PBM 8-mer E-score (mean of HK and ME arrays) (E-score (dimensionless, -0.5 to 0.5)); higher = stronger relative binding preference; most listed sequences are background and not binding sites
Method: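 Protein binding microarray: GST-tagged full-length MvaT (P. aeruginosa PAO1) bound to two universal double-stranded 60-mer arrays (ME and HK), each with a constant 25-mer primer and a variable 35-mer region covering all 8-mers. The 8-mer E-score (rank-based, range -0.5 to 0.5, >0.45 = specific binding) is the mean of the two arrays.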

Sequence	PBM 8-mer E-score
AGGATTTC	0.0133
ACTGCGCC	0.00726
ATGGAACC	-0.0973
AAGTAGCA	0.0841
CCTGTCAG	-0.223
CTATAACC	0.155
CCATGCGG	-0.298
AGTTATTA	0.414
AAATTAAG	0.361
CAGTGCTA	-0.152
CTTCCTGC	-0.224
ACATCGGA	-0.00845
GTCATGCA	-0.143
CCCCCACG	-0.277
ATCTCTAC	-0.0596
CACTGCCG	-0.171
GACTTTAA	0.262
AGCCTGTG	-0.0621
GAGAACAA	0.166
ACTGACGC	-0.0941
AAAGTCTA	0.094
ATTCCACA	0.149
CCCATCAA	-0.0981
TGCTGCCA	-0.142

Sequence	PBM 8-mer E-score
CACCTTCC	-0.164
GCCCCAGC	-0.27
AAGTTCCC	0.0932
GTATAGGA	-0.108
GCGAAGGA	-0.218
AGGACTTG	-0.0855
CACTGCAA	-0.00971
CCATAAGG	-0.19
AATCGGCG	-0.169
TAAGGTCA	0.112
ACGTCGCT	-0.191
GGTTCCAC	-0.149
CGCCCGGA	-0.234
CTAGGTCA	-0.257
ATCGCTGG	-0.107
ACGGCCCA	-0.315
CAGTCTAG	-0.165
AGTTTCCG	0.027
ATTGGGCA	0.0365
GTTCAACA	0.0548
AAACACCA	0.0601
ACGTAGAA	0.0549
TGAATCAA	-0.0476
ATCATCTC	-0.0869

Sequence	PBM 8-mer E-score
AGGCCCCA	-0.212
CCAACCGA	-0.0134
CTAACGAG	-0.191
CCTGAACG	-0.274
GATGCAGA	-0.099
CGAGCGCC	-0.213
AGCTGAGG	-0.204
CGAGGACC	-0.247
CCGGTTCG	-0.257
ACACACAA	0.153
ACAAAGGT	-0.145
ACAAACGT	0.0807
ACCCCTAA	-0.0104
CGTCTGGA	-0.131
ACGAGCGT	-0.226
AGATGGGG	-0.145
AACTTAGA	0.331
AGCCATGC	-0.263
AGCTTTAT	0.0328
GACATTGA	0.0147
AAATAGCA	0.166
CTCGCGGA	-0.145
CCATCCAG	-0.22
ATTTCCAA	0.225

Sequence	PBM 8-mer E-score
GGATCCTA	-0.239
ACTGCTAA	0.0475
ATAGTGCA	0.134
AGCTCACA	-0.146
CACTAGAC	-0.0529
ACACATGC	-0.00188
GAGGATCC	-0.342
GTCTCGTA	-0.0952
CATTCTGC	-0.0849
ATCACCTA	-0.133
TAAACAGA	0.188
CTCAAGCA	-0.173
AATCATGC	-0.023
AAGTGGAG	-0.179
CAAAACGA	-0.0171
ATGAGATC	-0.145
CAAATTAA	0.286
CACGACGA	-0.139
ATCCGTTC	-0.0995
AATACAAT	0.32
AACGGTGA	-0.000507
GAGCAATA	0.0724
